Test results taken from the supplement of paper PMC8728848.
This is one part of the list.

Key:
Experiment in all cases: glycan array binding signal (z-score within array); higher = stronger binding
Settings in all cases: glycan notation: IUPAC condensed, linker removed
[1] = target: GlcNAc(b1-3)Gal(b1-4)GlcNAc(b1-3)Gal(b1-4)GlcNAc(b1-2)Man(a1-3)[GlcNAc(b1-3)Gal(b1-4)GlcNAc(b1-3)Gal(b1-4)GlcNAc(b1-2)Man(a1-6)]Man(b1-4)GlcNAc(b1-4)[Fuc(a1-6)]GlcNAc
How it was run: (§1)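 The binding signal is a Z-score computed within each array. Data were drawn from 3228 arrays in the Consortium for Functional Glycomics database, restricted to those with a known protein sequence. Scores were averaged over arrays of the same protein sequence at different concentrations or buffers, and over linkers, and negative values can be taken as non-binding.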

[2] = target: GlcNAc(b1-3)Gal(b1-4)GlcNAc(b1-3)Gal(b1-4)GlcNAc(b1-2)[GlcNAc(b1-3)Gal(b1-4)GlcNAc(b1-3)Gal(b1-4)GlcNAc(b1-6)]Man(a1-6)[GlcNAc(b1-3)Gal(b1-4)GlcNAc(b1-3)Gal(b1-4)GlcNAc(b1-2)Man(a1-3)]Man(b1-4)GlcNAc(b1-4)[Fuc(a1-6)]GlcNAc
How it was run: as §1

[3] = target: GlcNAc(b1-3)Gal(b1-4)GlcNAc(b1-3)Gal(b1-4)GlcNAc(b1-3)Gal(b1-4)GlcNAc(b1-2)Man(a1-3)[GlcNAc(b1-3)Gal(b1-4)GlcNAc(b1-3)Gal(b1-4)GlcNAc(b1-3)Gal(b1-4)GlcNAc(b1-2)Man(a1-6)]Man(b1-4)GlcNAc(b1-4)GlcNAc
How it was run: as §1

[4] = target: GlcNAc(b1-3)Gal(b1-4)GlcNAc(b1-3)Gal(b1-4)GlcNAc(b1-3)Gal(b1-4)GlcNAc(b1-2)Man(a1-3)[GlcNAc(b1-3)Gal(b1-4)GlcNAc(b1-3)Gal(b1-4)GlcNAc(b1-3)Gal(b1-4)GlcNAc(b1-2)Man(a1-6)]Man(b1-4)GlcNAc(b1-4)[Fuc(a1-6)]GlcNAc
How it was run: as §1

[5] = target: GlcNAc(b1-3)Gal(b1-4)GlcNAc(b1-3)Gal(b1-4)GlcNAc(b1-3)Gal(b1-4)GlcNAc(b1-2)[GlcNAc(b1-3)Gal(b1-4)GlcNAc(b1-3)Gal(b1-4)GlcNAc(b1-3)Gal(b1-4)GlcNAc(b1-6)]Man(a1-6)[GlcNAc(b1-3)Gal(b1-4)GlcNAc(b1-3)Gal(b1-4)GlcNAc(b1-3)Gal(b1-4)GlcNAc(b1-2)Man(a1-3)]Man(b1-4)GlcNAc(b1-4)[Fuc(a1-6)]GlcNAc
How it was run: as §1

[6] = target: GlcNAc(b1-3)Gal(b1-4)GlcNAc(b1-3)Gal(b1-4)GlcNAc(b1-3)Gal(b1-4)GlcNAc(b1-3)Gal(b1-4)GlcNAc(b1-2)Man(a1-3)[GlcNAc(b1-3)Gal(b1-4)GlcNAc(b1-3)Gal(b1-4)GlcNAc(b1-3)Gal(b1-4)GlcNAc(b1-3)Gal(b1-4)GlcNAc(b1-2)Man(a1-6)]Man(b1-4)GlcNAc(b1-4)GlcNAc
How it was run: as §1

[7] = target: GlcNAc(b1-3)Gal(b1-4)GlcNAc(b1-3)Gal(b1-4)GlcNAc(b1-3)Gal(b1-4)GlcNAc(b1-3)Gal(b1-4)GlcNAc(b1-2)Man(a1-3)[GlcNAc(b1-3)Gal(b1-4)GlcNAc(b1-3)Gal(b1-4)GlcNAc(b1-3)Gal(b1-4)GlcNAc(b1-3)Gal(b1-4)GlcNAc(b1-2)Man(a1-6)]Man(b1-4)GlcNAc(b1-4)[Fuc(a1-6)]GlcNAc
How it was run: as §1

[8] = target: GlcNAc(b1-3)Gal(b1-4)GlcNAc(b1-3)Gal(b1-4)GlcNAc(b1-3)Gal(b1-4)GlcNAc(b1-3)Gal(b1-4)GlcNAc(b1-2)[GlcNAc(b1-3)Gal(b1-4)GlcNAc(b1-3)Gal(b1-4)GlcNAc(b1-3)Gal(b1-4)GlcNAc(b1-3)Gal(b1-4)GlcNAc(b1-6)]Man(a1-6)[GlcNAc(b1-3)Gal(b1-4)GlcNAc(b1-3)Gal(b1-4)GlcNAc(b1-3)Gal(b1-4)GlcNAc(b1-3)Gal(b1-4)GlcNAc(b1-2)Man(a1-3)]Man(b1-4)GlcNAc(b1-4)[Fuc(a1-6)]GlcNAc
How it was run: as §1

[9] = target: GlcNAc(b1-3)Gal(b1-4)GlcNAc(b1-3)Gal(b1-4)GlcNAc(b1-3)GalNAc
How it was run: as §1

[10] = target: GlcNAc(b1-3)Gal(b1-4)GlcNAc(b1-3)GalNAc
How it was run: as §1

[11] = target: GlcNAc(b1-3)Gal(b1-4)GlcNAc(b1-3)[GlcNAc(b1-3)Gal(b1-4)GlcNAc(b1-3)]GalNAc
How it was run: as §1

[12] = target: GlcNAc(b1-3)Gal(b1-4)GlcNAc(b1-6)[Gal(b1-3)]GalNAc
How it was run: as §1

[13] = target: GlcNAc(b1-3)Gal(b1-4)GlcNAc(b1-6)[GlcNAc(b1-3)Gal(b1-3)]GalNAc
How it was run: as §1

[14] = target: GlcNAc(b1-3)Gal(b1-4)GlcNAc(b1-6)[GlcNAc(b1-3)]Gal(b1-4)GlcNAc
How it was run: as §1

GlcNAc(b1-3)GalNAc = target: GlcNAc(b1-3)GalNAc
How it was run: as §1

GlcNAc(b1-3)Man = target: GlcNAc(b1-3)Man
How it was run: as §1

[15] = target: GlcNAc(b1-3)[GlcNAc(b1-4)][GlcNAc(b1-6)]GlcNAc
How it was run: as §1

[16] = target: GlcNAc(b1-3)[GlcNAc(b1-6)]Gal(b1-4)GlcNAc
How it was run: as §1

[17] = target: GlcNAc(b1-3)[GlcNAc(b1-6)]GalNAc
How it was run: as §1

[18] = target: GlcNAc(b1-4)Gal(b1-4)GlcNAc
How it was run: as §1

GlcNAc(b1-4)GlcNAc = target: GlcNAc(b1-4)GlcNAc
How it was run: as §1

[19] = target: GlcNAc(b1-4)GlcNAc(b1-4)GlcNAc
How it was run: as §1

[20] = target: GlcNAc(b1-4)GlcNAc(b1-4)GlcNAc(b1-4)GlcNAc(b1-4)GlcNAc
How it was run: as §1

[21] = target: GlcNAc(b1-4)GlcNAc(b1-4)GlcNAc(b1-4)GlcNAc(b1-4)GlcNAc(b1-4)GlcNAc
How it was run: as §1

[22] = target: GlcNAc(b1-4)[GlcNAc(b1-6)]GalNAc
How it was run: as §1

[23] = target: GlcNAc(b1-6)Gal(b1-4)GlcNAc
How it was run: as §1

GlcNAc(b1-6)GalNAc = target: GlcNAc(b1-6)GalNAc
How it was run: as §1

[24] = target: GlcNAc6S(b1-3)Gal(b1-4)GlcNAc
How it was run: as §1

Kdn(a2-3)Gal(b1-3)GalNAc = target: Kdn(a2-3)Gal(b1-3)GalNAc
How it was run: as §1

Kdn(a2-3)Gal(b1-3)GlcNAc = target: Kdn(a2-3)Gal(b1-3)GlcNAc
How it was run: as §1

Kdn(a2-3)Gal(b1-4)Glc = target: Kdn(a2-3)Gal(b1-4)Glc
How it was run: as §1

Kdn(a2-3)Gal(b1-4)GlcNAc = target: Kdn(a2-3)Gal(b1-4)GlcNAc
How it was run: as §1

[25] = target: Kdn(a2-3)Gal(b1-4)[Fuc(a1-3)]GlcNAc
How it was run: as §1

Kdn(a2-6)Gal(b1-4)GlcNAc = target: Kdn(a2-6)Gal(b1-4)GlcNAc
How it was run: as §1

[26] = target: Man(a1-2)Man(a1-2)Man(a1-3)Man
How it was run: as §1

[27] = target: Man(a1-2)Man(a1-2)Man(a1-6)[Man(a1-3)]Man
How it was run: as §1

Man(a1-2)Man(a1-3)Man = target: Man(a1-2)Man(a1-3)Man
How it was run: as §1

[28] = target: Man(a1-2)Man(a1-3)[Man(a1-2)Man(a1-6)]Man
How it was run: as §1

B1: Cohesin-hDC-ASGPR (Homo sapiens) (protein)
chain: LDDLDAVRIKVDTVNAKPGDTVRIPVRFSGIPSKGIANCDFVYSYDPNVLEIIEIEPGDIIVDPNPDKSFDTAVYPDRKIIVFLFAEDSGTGAYAITKDGVFATIVAKVKEGAPNGLSVIKFVEVGGFANNDLVEQKTQFFDGGANVGDTTEPATPTTPVTTPTTTDDLDAASQNSKFQRDLVTLRTDFSNFTSNTVAEIQALTSQGSSLEETIASLKAEVEGFKQERQAGVSELQEHTTQKAHLGHCPHCPSVCVPVHSEMLLRVQQLVQDLKKLTCQVATLNNNASTEGTCCPVNWVEHQDSCYWFSHSGMSWAEAEKYCQLKNAHLVVINSREEQNFVQKYLGSAYTWMGLSDPEGAWKWVDGTDYATGFQNWKPGQPDDWQGHGLGGGEDCAHFHPDGRWNDDVCQRPYHWVCEAGLGQTSQESHHHHHH
- glycan array binding signal (z-score) [1]: -0.36
- glycan array binding signal (z-score) [2]: -0.475
- glycan array binding signal (z-score) [3]: -0.506
- glycan array binding signal (z-score) [4]: -0.394
- glycan array binding signal (z-score) [5]: -0.49
- glycan array binding signal (z-score) [6]: -0.443
- glycan array binding signal (z-score) [7]: -0.435
- glycan array binding signal (z-score) [8]: -0.48
- glycan array binding signal (z-score) [9]: -0.501
- glycan array binding signal (z-score) [10]: -0.458
- glycan array binding signal (z-score) [11]: -0.455
- glycan array binding signal (z-score) [12]: -0.442
- glycan array binding signal (z-score) [13]: -0.499
- glycan array binding signal (z-score) [14]: -0.461
- glycan array binding signal (z-score) (GlcNAc(b1-3)GalNAc): -0.466
- glycan array binding signal (z-score) (GlcNAc(b1-3)Man): -0.46
- glycan array binding signal (z-score) [15]: -0.509
- glycan array binding signal (z-score) [16]: -0.516
- glycan array binding signal (z-score) [17]: -0.467
- glycan array binding signal (z-score) [18]: -0.452
- glycan array binding signal (z-score) (GlcNAc(b1-4)GlcNAc): -0.466
- glycan array binding signal (z-score) [19]: -0.506
- glycan array binding signal (z-score) [20]: -0.46
- glycan array binding signal (z-score) [21]: -0.484
- glycan array binding signal (z-score) [22]: -0.467
- glycan array binding signal (z-score) [23]: -0.486
- glycan array binding signal (z-score) (GlcNAc(b1-6)GalNAc): 2.75
- glycan array binding signal (z-score) [24]: -0.433
- glycan array binding signal (z-score) (Kdn(a2-3)Gal(b1-3)GalNAc): -0.428
- glycan array binding signal (z-score) (Kdn(a2-3)Gal(b1-3)GlcNAc): -0.515
- glycan array binding signal (z-score) (Kdn(a2-3)Gal(b1-4)Glc): -0.499
- glycan array binding signal (z-score) (Kdn(a2-3)Gal(b1-4)GlcNAc): -0.517
- glycan array binding signal (z-score) [25]: -0.485
- glycan array binding signal (z-score) (Kdn(a2-6)Gal(b1-4)GlcNAc): -0.512
- glycan array binding signal (z-score) [26]: -0.457
- glycan array binding signal (z-score) [27]: -0.495
- glycan array binding signal (z-score) (Man(a1-2)Man(a1-3)Man): -0.472
- glycan array binding signal (z-score) [28]: -0.502
